Results taken from a collection of fitness landscapes (doi:10.1126/science.1257360).
This is one part of the list.

B1: PhoQ; a variant is named by its letters at X, in order, P23837 (parent)
chain: MKKLLRLFFPLSLRVRFLLATAAVVLVLSLAYGMVALIGYSVSFDKTTFRLLRGESNLFYTLAKWENNKLHVELPENIDKQSPTMTLIYDENGQLLWAQRDVPWLMKMIQPDWLKSNGFHEIEADVNDTSLLLSGDHSIQQQLQEVREDDDDAEMTHSVAVNVYPATSRMPKLTIVVVDTIPVELKSSYMVWSWFIYVLSANLLLVIPLLWVAAWWSLRPIEALAKEVRELEEHNRELLNPATTRELTSLVRNLNRLLKSERERYDKYRTTLTDLTHSLKTPLXXLQXXLRSLRSEKMSVSDAEPVMLEQISRISQQIGYYLHRASMRGGTLLSRELHPVAPLLDNLTSALNKVYQRKGVNISLDISPEISFVGEQNDFVEVMGNVLDNACKYCLEFVEISARQTDEHLYIVVEDDGPGIPLSKREVIFDRGQRVDTLRPGQGVGLAVAREITEQYEGKIVAGESMLGGARMEVIFGRQHSAPKDE

Variants of: B1
Assay: enrichment ratio after two sorts for PhoP signalling (ratio (wild type AVST 3.29)); higher = more functional
Conditions: with PhoP (E. coli)

Row | Variant | enrichment ratio
1 | VAHF | ≤ 0.25
2 | HSIE | ≤ 0.25
3 | LVCW | ≤ 0.25
4 | SVGL | 5.82
5 | ISDI | ≤ 0.25
6 | WHFI | ≤ 0.25
7 | GYNW | ≤ 0.25
8 | PTMS | ≤ 0.25
9 | MIAN | 6.22
10 | RYQT | ≤ 0.25
11 | VEMH | 5.99
12 | ILMV | ≤ 0.25
13 | PLRL | ≤ 0.25
14 | QHRQ | ≤ 0.25
15 | TKPQ | ≤ 0.25
16 | ICPQ | ≤ 0.25
17 | DRMF | ≤ 0.25
18 | VYWF | ≤ 0.25
19 | WPMC | ≤ 0.25
20 | PQNH | ≤ 0.25
21 | KYGF | ≤ 0.25
22 | FTKL | ≤ 0.25
23 | GYKH | ≤ 0.25
24 | GPYD | ≤ 0.25
25 | ILAR | ≤ 0.25
26 | MLHV | ≤ 0.25

Row | Variant | enrichment ratio
27 | RFPG | ≤ 0.25
28 | SETC | 13.2
29 | HKSW | ≤ 0.25
30 | IDKG | ≤ 0.25
31 | GSVG | ≤ 0.25
32 | QQIG | ≤ 0.25
33 | VFPT | ≤ 0.25
34 | NCFG | ≤ 0.25
35 | FDHL | ≤ 0.25
36 | IAGA | ≤ 0.25
37 | NPRH | ≤ 0.25
38 | VIIR | 0.252
39 | PIYQ | ≤ 0.25
40 | PVFQ | ≤ 0.25
41 | HISM | ≤ 0.25
42 | TEMA | 38.6
43 | FQPE | ≤ 0.25
44 | LVGN | ≤ 0.25
45 | IVTK | ≤ 0.25
46 | MFAG | ≤ 0.25
47 | LECN | ≤ 0.25
48 | WIRC | ≤ 0.25
49 | PEMM | ≤ 0.25
50 | RHRI | ≤ 0.25
51 | ERNE | ≤ 0.25
52 | CTMY | 42.4

Row | Variant | enrichment ratio
53 | WHLR | ≤ 0.25
54 | MLPL | ≤ 0.25
55 | AARD | ≤ 0.25
56 | KGSN | ≤ 0.25
57 | MYVT | ≤ 0.25
58 | ELPL | ≤ 0.25
59 | IWRD | ≤ 0.25
60 | WYEL | ≤ 0.25
61 | ICSK | ≤ 0.25
62 | VAGE | 2.49
63 | LVYE | ≤ 0.25
64 | RYPS | ≤ 0.25
65 | GRCC | ≤ 0.25
66 | IWWV | ≤ 0.25
67 | ESVW | ≤ 0.25
68 | ICHD | ≤ 0.25
69 | TMKS | ≤ 0.25
70 | YSII | ≤ 0.25
71 | PKCP | ≤ 0.25
72 | MKVL | ≤ 0.25
73 | MGNY | ≤ 0.25
74 | RQKP | ≤ 0.25
75 | DYGP | ≤ 0.25
76 | FILG | 2.69
77 | HEDP | ≤ 0.25
78 | EFKQ | ≤ 0.25

Row | Variant | enrichment ratio
79 | SAVP | ≤ 0.25
80 | MLIK | ≤ 0.25
81 | FVAG | ≤ 0.25
82 | HYYF | ≤ 0.25
83 | WLGG | ≤ 0.25
84 | EMMY | ≤ 0.25
85 | HDYN | ≤ 0.25
86 | PNLY | ≤ 0.25
87 | YLYH | ≤ 0.25
88 | WLCN | ≤ 0.25
89 | EDYM | ≤ 0.25
90 | YDKL | ≤ 0.25
91 | KFVR | ≤ 0.25
92 | VDPA | ≤ 0.25
93 | KTHS | 0.436
94 | KDWC | ≤ 0.25
95 | DTVA | ≤ 0.25
96 | HFKW | ≤ 0.25
97 | TRGY | 1.21
98 | YQNH | ≤ 0.25
99 | VDLI | ≤ 0.25
100 | TMWL | ≤ 0.25
101 | YPEA | ≤ 0.25
102 | YRAC | ≤ 0.25
103 | GRDG | ≤ 0.25
104 | RRDM | ≤ 0.25

Row | Variant | enrichment ratio
105 | LIDR | ≤ 0.25
106 | AGDK | ≤ 0.25
107 | WTPT | ≤ 0.25
108 | WNDG | ≤ 0.25
109 | GPIL | ≤ 0.25
110 | IYWG | ≤ 0.25
111 | MKCA | ≤ 0.25
112 | FKLH | ≤ 0.25
113 | NTSC | ≤ 0.25
114 | GVLR | 5.94
115 | TMHN | ≤ 0.25
116 | DMFG | ≤ 0.25
117 | PDSK | ≤ 0.25
118 | NHAM | ≤ 0.25
119 | CTMF | 25.7
120 | VDAM | ≤ 0.25
121 | PFHL | ≤ 0.25
122 | DITP | ≤ 0.25
123 | QSII | ≤ 0.25
124 | DRYK | ≤ 0.25
125 | EKKS | ≤ 0.25
126 | LSLW | ≤ 0.25
127 | YVLN | 1.05
128 | ISWF | ≤ 0.25
129 | HLQH | ≤ 0.25
130 | RNSG | ≤ 0.25

Row | Variant | enrichment ratio
131 | MRIN | ≤ 0.25
132 | KLCC | ≤ 0.25
133 | AWRT | ≤ 0.25
134 | TGYL | 10.1
135 | FSQH | ≤ 0.25
136 | SEWP | ≤ 0.25
137 | QYMR | ≤ 0.25
138 | HGLM | 16.4
139 | EPAS | ≤ 0.25
140 | PDYY | ≤ 0.25
141 | PEPP | ≤ 0.25
142 | SIMF | 2.82
143 | DRSA | ≤ 0.25
144 | IMGM | ≤ 0.25
145 | QEAS | 10.1
146 | QQVK | ≤ 0.25
147 | EIKI | ≤ 0.25
148 | NEIH | ≤ 0.25
149 | ESYD | ≤ 0.25
150 | MIVY | 3.34
151 | PEVY | ≤ 0.25
152 | YGDQ | ≤ 0.25
153 | FEHD | ≤ 0.25
